Assay results from paper PMC12820563, “FoxP3 forms a head-to-head dimer in vivo and stabilizes its multimerization on adjacent microsatellites”.
The other results are listed elsewhere or left out.

Molecular target: T1, MBP-FoxP1dN (Mus musculus, UniProt P58462 326-579)
T1 sequence: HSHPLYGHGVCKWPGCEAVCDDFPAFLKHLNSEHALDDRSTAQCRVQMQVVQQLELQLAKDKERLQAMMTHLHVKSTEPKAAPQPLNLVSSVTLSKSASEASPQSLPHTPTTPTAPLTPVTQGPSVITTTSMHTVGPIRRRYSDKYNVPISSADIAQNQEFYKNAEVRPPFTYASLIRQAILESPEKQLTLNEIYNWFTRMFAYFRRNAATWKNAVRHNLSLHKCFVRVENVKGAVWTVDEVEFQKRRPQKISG
Test: PD-seq (MBP pull-down with sequencing); 20 mM Tris-HCl pH 7.5, 100 mM NaCl, 1.5 mM MgCl2, 0.4 uM protein, 0.1 uM dsDNA library, 30 min, room temperature, amylose pull-down; high values mean tight binding
Conditions: protein: recombinant; tags: His6-MBP; chain copies: 2; dsDNA, one strand shown
Method in brief: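 Binding is reads-per-million enrichment of pull-down over input, with replicates pooled. It comes from 30 min room-temperature incubation in Tris pH 7.5 buffer with NaCl and MgCl2 of 0.4 µM His6-MBP-tagged, N-terminally truncated mouse FoxP3 or FoxP1 fragment from E. coli with 0.1 µM Klenow-filled degenerate double-stranded DNA library, followed by amylose resin capture, three washes and Illumina sequencing of the released DNA.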

Sequence	binding signal
GATGATTGTTCTCCCAGCTGATGAATTATACGTGTCGAGTAAACAAATTTTCCTAATCTTTCTGTTCAAGCGCCATCTAC	1.05 RPM ratio (pull-down/input)
GATGATTGTTCTCCCAGCTGATGAATTTGCGTAGTCGAGTAAACAAATTTTCCTAATCTTTCTGTTCAAGCGCCATCTAC	1.01 RPM ratio (pull-down/input)
GATGATTGTTCTCCCAGCTGATGAATTCGGAATATCGAGTAAACAAATTTTCCTAATCTTTCTGTTCAAGCGCCATCTAC	0.92 RPM ratio (pull-down/input)
GATGATTGTTCTCCCAGCTGATGAATTTAGCGATTCGAGTAAACAAATTTTCCTAATCTTTCTGTTCAAGCGCCATCTAC	0.947 RPM ratio (pull-down/input)
GATGATTGTTCTCCCAGCTGATGAATTAAAAGACTCGAGTAAACAAATTTTCCTAATCTTTCTGTTCAAGCGCCATCTAC	0.784 RPM ratio (pull-down/input)
GATGATTGTTCTCCCAGCTGATGAATTCCTCTAGTCGAGTAAACAAATTTTCCTAATCTTTCTGTTCAAGCGCCATCTAC	0.791 RPM ratio (pull-down/input)
GATGATTGTTCTCCCAGCTGATGAATTTGTTTCCTCGAGTAAACAAATTTTCCTAATCTTTCTGTTCAAGCGCCATCTAC	1.49 RPM ratio (pull-down/input)
GATGATTGTTCTCCCAGCTGATGAATTGACAAAGTCGAGTAAACAAATTTTCCTAATCTTTCTGTTCAAGCGCCATCTAC	1.38 RPM ratio (pull-down/input)
GATGATTGTTCTCCCAGCTGATGAATTGTAGGTCTCGAGTAAACAAATTTTCCTAATCTTTCTGTTCAAGCGCCATCTAC	0.944 RPM ratio (pull-down/input)
GATGATTGTTCTCCCAGCTGATGAATTTTCTAGCTCGAGTAAACAAATTTTCCTAATCTTTCTGTTCAAGCGCCATCTAC	0.887 RPM ratio (pull-down/input)
GATGATTGTTCTCCCAGCTGATGAATTGTTCCGGTCGAGTAAACAAATTTTCCTAATCTTTCTGTTCAAGCGCCATCTAC	0.988 RPM ratio (pull-down/input)
GATGATTGTTCTCCCAGCTGATGAATTCACGGTTTCGAGTAAACAAATTTTCCTAATCTTTCTGTTCAAGCGCCATCTAC	0.93 RPM ratio (pull-down/input)
GATGATTGTTCTCCCAGCTGATGAATTTGACTGCTCGAGTAAACAAATTTTCCTAATCTTTCTGTTCAAGCGCCATCTAC	0.762 RPM ratio (pull-down/input)
GATGATTGTTCTCCCAGCTGATGAATTCTATGGCTCGAGTAAACAAATTTTCCTAATCTTTCTGTTCAAGCGCCATCTAC	0.788 RPM ratio (pull-down/input)
GATGATTGTTCTCCCAGCTGATGAATTAAAGGGTTCGAGTAAACAAATTTTCCTAATCTTTCTGTTCAAGCGCCATCTAC	0.829 RPM ratio (pull-down/input)
GATGATTGTTCTCCCAGCTGATGAATTACCGTGATCGAGTAAACAAATTTTCCTAATCTTTCTGTTCAAGCGCCATCTAC	0.939 RPM ratio (pull-down/input)
GATGATTGTTCTCCCAGCTGATGAATTGCTGGCCTCGAGTAAACAAATTTTCCTAATCTTTCTGTTCAAGCGCCATCTAC	0.89 RPM ratio (pull-down/input)
GATGATTGTTCTCCCAGCTGATGAATTATATCCATCGAGTAAACAAATTTTCCTAATCTTTCTGTTCAAGCGCCATCTAC	1.02 RPM ratio (pull-down/input)
GATGATTGTTCTCCCAGCTGATGAATTTTCACCTTCGAGTAAACAAATTTTCCTAATCTTTCTGTTCAAGCGCCATCTAC	0.852 RPM ratio (pull-down/input)
GATGATTGTTCTCCCAGCTGATGAATTCGTTCGTTCGAGTAAACAAATTTTCCTAATCTTTCTGTTCAAGCGCCATCTAC	0.843 RPM ratio (pull-down/input)
GATGATTGTTCTCCCAGCTGATGAATTCGTACTCTCGAGTAAACAAATTTTCCTAATCTTTCTGTTCAAGCGCCATCTAC	0.778 RPM ratio (pull-down/input)

Sequence	binding signal
GATGATTGTTCTCCCAGCTGATGAATTGCTAGCATCGAGTAAACAAATTTTCCTAATCTTTCTGTTCAAGCGCCATCTAC	1.2 RPM ratio (pull-down/input)
GATGATTGTTCTCCCAGCTGATGAATTAACTGCTTCGAGTAAACAAATTTTCCTAATCTTTCTGTTCAAGCGCCATCTAC	0.912 RPM ratio (pull-down/input)
GATGATTGTTCTCCCAGCTGATGAATTTCTTCACTCGAGTAAACAAATTTTCCTAATCTTTCTGTTCAAGCGCCATCTAC	0.868 RPM ratio (pull-down/input)
GATGATTGTTCTCCCAGCTGATGAATTTAAGTGTTCGAGTAAACAAATTTTCCTAATCTTTCTGTTCAAGCGCCATCTAC	1.04 RPM ratio (pull-down/input)
GATGATTGTTCTCCCAGCTGATGAATTGTGTGCTTCGAGTAAACAAATTTTCCTAATCTTTCTGTTCAAGCGCCATCTAC	1.16 RPM ratio (pull-down/input)
GATGATTGTTCTCCCAGCTGATGAATTCGTAGGCTCGAGTAAACAAATTTTCCTAATCTTTCTGTTCAAGCGCCATCTAC	0.748 RPM ratio (pull-down/input)
GATGATTGTTCTCCCAGCTGATGAATTAGGCTTATCGAGTAAACAAATTTTCCTAATCTTTCTGTTCAAGCGCCATCTAC	0.935 RPM ratio (pull-down/input)
GATGATTGTTCTCCCAGCTGATGAATTATCATAATCGAGTAAACAAATTTTCCTAATCTTTCTGTTCAAGCGCCATCTAC	1.37 RPM ratio (pull-down/input)
GATGATTGTTCTCCCAGCTGATGAATTACACTAATCGAGTAAACAAATTTTCCTAATCTTTCTGTTCAAGCGCCATCTAC	1.39 RPM ratio (pull-down/input)
GATGATTGTTCTCCCAGCTGATGAATTACGACCTTCGAGTAAACAAATTTTCCTAATCTTTCTGTTCAAGCGCCATCTAC	1.1 RPM ratio (pull-down/input)
GATGATTGTTCTCCCAGCTGATGAATTGAACGGATCGAGTAAACAAATTTTCCTAATCTTTCTGTTCAAGCGCCATCTAC	0.799 RPM ratio (pull-down/input)
GATGATTGTTCTCCCAGCTGATGAATTACAGGGGTCGAGTAAACAAATTTTCCTAATCTTTCTGTTCAAGCGCCATCTAC	0.898 RPM ratio (pull-down/input)
GATGATTGTTCTCCCAGCTGATGAATTGTTTGATTCGAGTAAACAAATTTTCCTAATCTTTCTGTTCAAGCGCCATCTAC	1.33 RPM ratio (pull-down/input)
GATGATTGTTCTCCCAGCTGATGAATTAATTCCTTCGAGTAAACAAATTTTCCTAATCTTTCTGTTCAAGCGCCATCTAC	0.955 RPM ratio (pull-down/input)
GATGATTGTTCTCCCAGCTGATGAATTTTCCACTTCGAGTAAACAAATTTTCCTAATCTTTCTGTTCAAGCGCCATCTAC	0.903 RPM ratio (pull-down/input)
GATGATTGTTCTCCCAGCTGATGAATTGCGGTCGTCGAGTAAACAAATTTTCCTAATCTTTCTGTTCAAGCGCCATCTAC	0.951 RPM ratio (pull-down/input)
GATGATTGTTCTCCCAGCTGATGAATTCCTGAATTCGAGTAAACAAATTTTCCTAATCTTTCTGTTCAAGCGCCATCTAC	0.913 RPM ratio (pull-down/input)
GATGATTGTTCTCCCAGCTGATGAATTTTCCACGTCGAGTAAACAAATTTTCCTAATCTTTCTGTTCAAGCGCCATCTAC	0.889 RPM ratio (pull-down/input)
GATGATTGTTCTCCCAGCTGATGAATTAACATGATCGAGTAAACAAATTTTCCTAATCTTTCTGTTCAAGCGCCATCTAC	0.921 RPM ratio (pull-down/input)
GATGATTGTTCTCCCAGCTGATGAATTTTGCATATCGAGTAAACAAATTTTCCTAATCTTTCTGTTCAAGCGCCATCTAC	1.16 RPM ratio (pull-down/input)
GATGATTGTTCTCCCAGCTGATGAATTAGTGAAGTCGAGTAAACAAATTTTCCTAATCTTTCTGTTCAAGCGCCATCTAC	0.872 RPM ratio (pull-down/input)

Sequence	binding signal
GATGATTGTTCTCCCAGCTGATGAATTCGCCTTCTCGAGTAAACAAATTTTCCTAATCTTTCTGTTCAAGCGCCATCTAC	0.822 RPM ratio (pull-down/input)
GATGATTGTTCTCCCAGCTGATGAATTGTAAATTTCGAGTAAACAAATTTTCCTAATCTTTCTGTTCAAGCGCCATCTAC	1.07 RPM ratio (pull-down/input)
GATGATTGTTCTCCCAGCTGATGAATTAGAATATTCGAGTAAACAAATTTTCCTAATCTTTCTGTTCAAGCGCCATCTAC	1.01 RPM ratio (pull-down/input)
GATGATTGTTCTCCCAGCTGATGAATTATCGAATTCGAGTAAACAAATTTTCCTAATCTTTCTGTTCAAGCGCCATCTAC	1.03 RPM ratio (pull-down/input)
GATGATTGTTCTCCCAGCTGATGAATTGTTTTGGTCGAGTAAACAAATTTTCCTAATCTTTCTGTTCAAGCGCCATCTAC	2.02 RPM ratio (pull-down/input)
GATGATTGTTCTCCCAGCTGATGAATTAGTAGAGTCGAGTAAACAAATTTTCCTAATCTTTCTGTTCAAGCGCCATCTAC	0.99 RPM ratio (pull-down/input)
GATGATTGTTCTCCCAGCTGATGAATTGGTTAAATCGAGTAAACAAATTTTCCTAATCTTTCTGTTCAAGCGCCATCTAC	1.17 RPM ratio (pull-down/input)
GATGATTGTTCTCCCAGCTGATGAATTGTTGTGCTCGAGTAAACAAATTTTCCTAATCTTTCTGTTCAAGCGCCATCTAC	2.06 RPM ratio (pull-down/input)
GATGATTGTTCTCCCAGCTGATGAATTAAACTGTTCGAGTAAACAAATTTTCCTAATCTTTCTGTTCAAGCGCCATCTAC	1.01 RPM ratio (pull-down/input)
GATGATTGTTCTCCCAGCTGATGAATTTTGGTTGTCGAGTAAACAAATTTTCCTAATCTTTCTGTTCAAGCGCCATCTAC	1.24 RPM ratio (pull-down/input)
GATGATTGTTCTCCCAGCTGATGAATTCCGTCCTTCGAGTAAACAAATTTTCCTAATCTTTCTGTTCAAGCGCCATCTAC	0.801 RPM ratio (pull-down/input)
GATGATTGTTCTCCCAGCTGATGAATTATTTCCGTCGAGTAAACAAATTTTCCTAATCTTTCTGTTCAAGCGCCATCTAC	1.04 RPM ratio (pull-down/input)
GATGATTGTTCTCCCAGCTGATGAATTCACTCGGTCGAGTAAACAAATTTTCCTAATCTTTCTGTTCAAGCGCCATCTAC	0.762 RPM ratio (pull-down/input)
GATGATTGTTCTCCCAGCTGATGAATTCTATTCCTCGAGTAAACAAATTTTCCTAATCTTTCTGTTCAAGCGCCATCTAC	0.893 RPM ratio (pull-down/input)
GATGATTGTTCTCCCAGCTGATGAATTACGCTCGTCGAGTAAACAAATTTTCCTAATCTTTCTGTTCAAGCGCCATCTAC	0.996 RPM ratio (pull-down/input)
GATGATTGTTCTCCCAGCTGATGAATTACTTCTCTCGAGTAAACAAATTTTCCTAATCTTTCTGTTCAAGCGCCATCTAC	0.995 RPM ratio (pull-down/input)
GATGATTGTTCTCCCAGCTGATGAATTGAGAATCTCGAGTAAACAAATTTTCCTAATCTTTCTGTTCAAGCGCCATCTAC	0.775 RPM ratio (pull-down/input)
GATGATTGTTCTCCCAGCTGATGAATTTTGAAACTCGAGTAAACAAATTTTCCTAATCTTTCTGTTCAAGCGCCATCTAC	0.95 RPM ratio (pull-down/input)
GATGATTGTTCTCCCAGCTGATGAATTTTTCGCTTCGAGTAAACAAATTTTCCTAATCTTTCTGTTCAAGCGCCATCTAC	0.91 RPM ratio (pull-down/input)
GATGATTGTTCTCCCAGCTGATGAATTCCTCCAGTCGAGTAAACAAATTTTCCTAATCTTTCTGTTCAAGCGCCATCTAC	0.839 RPM ratio (pull-down/input)
GATGATTGTTCTCCCAGCTGATGAATTCTGAGACTCGAGTAAACAAATTTTCCTAATCTTTCTGTTCAAGCGCCATCTAC	0.757 RPM ratio (pull-down/input)
